Experimental data: PubChem BioAssay AID1745853 (National Center for Advancing Translational Sciences (NCATS), 2022)
The list shows a part of the results. The main result of the screen is listed elsewhere. These columns were measured beside it and carry no call.

Columns and labels:
Experiment in all cases: Primary Screen for Target Class Profiling of Small Molecule Inhibitors of Methyltransferases
[1] = molecular target: Glycine N-methyltransferase (Homo sapiens) (UniProt Q14749); settings: purified enzyme, MTase-Glo SAH luminescence; measured here: GNMT inhibition; at 40 µM; stronger effect = lower value
In short: (§1)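 Each enzyme was reacted with SAM and its substrate, with compounds tested once at 40 uM; SAH formed was read by MTase-Glo luminescence.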

[2] = molecular target: Guanidinoacetate N-methyltransferase (Homo sapiens) (UniProt Q14353); settings: purified enzyme, MTase-Glo SAH luminescence; measured here: GAMT inhibition; at 40 µM; stronger effect = lower value
In short: as §1

[3] = molecular target: Histamine N-methyltransferase (Homo sapiens) (UniProt P50135); settings: purified enzyme, MTase-Glo SAH luminescence; measured here: HNMT inhibition; at 40 µM; stronger effect = lower value
In short: as §1

[4] = molecular target: Nicotinamide N-methyltransferase (Homo sapiens) (UniProt P40261); settings: purified enzyme, MTase-Glo SAH luminescence; measured here: NNMT inhibition; at 40 µM; stronger effect = lower value
In short: as §1

[5] = molecular target: Phenylethanolamine N-methyltransferase (Homo sapiens) (UniProt P11086); settings: purified enzyme, MTase-Glo SAH luminescence; measured here: PNMT inhibition; at 40 µM; stronger effect = lower value
In short: as §1
% is set by controls: 0 for no effect and ±100 for the full control effect.

SMILES	activity change, negative = inhibition [1]	activity change, negative = inhibition [2]	activity change, negative = inhibition [3]	activity change, negative = inhibition [4]	activity change, negative = inhibition [5]
Cc1cc2c(C(C)C)c(O)c(O)c(C=O)c2c(O)c1-c1c(C)cc2c(C(C)C)c(O)c(O)c(C=O)c2c1O	-67%	1.47%	-28.4%	-47.8%	5.56%
Fc1ccc2c(c1)C1C=CCC1C(c1ccc(Cl)cc1)N2 (stereo not drawn)	-8.36%	-2.59%	-10.4%	-8.64%	-10%
COc1ccccc1Nc1nc2c(S(=O)(=O)c3ccccc3)nnn2c2ccccc12	2.52%	0%	7.69%	4.93%	2.25%
COc1ccc(S(=O)(=O)NCCc2nc(-c3ccc(F)cc3)n[nH]2)cc1OC	1.78%	0%	9.22%	-2.58%	2.52%
COc1ccc(N2CCN(CCNS(=O)(=O)c3ccc4c(c3)C(C)(C)C(=O)N4C)CC2)cc1	3.11%	0%	0.545%	-1.57%	2.3%
CC1(C(=O)NCc2ccc(Cl)cc2)Cn2c(ccc2-c2ccco2)C(=O)N1CCC1=CCCCC1 (stereo not drawn)	-16.9%	0%	-1.01%	-19.7%	-7.01%
FC(F)(F)c1ccc(CN2CC(N3CCc4ccccc43)C2)cc1	-6.74%	1.26%	0.545%	-2.32%	-3.88%
NS(=O)(=O)c1ccc(N=Nc2c(O)[nH]c3ccc(Br)cc23)cc1	–	-8.77%	–	-26.2%	-3.89%
COc1ccc(Cl)cc1NC(=O)Cn1nc2n(CCCOC(C)C)c(=O)c3ccccc3n2c1=O	7.09%	1.46%	9.61%	-1.07%	5.36%
NC(=O)c1cccc(NC(=O)c2cccc(CN3CCNC(=O)C3)c2)c1	-22.1%	-1.5%	-26.1%	-5.96%	-11.3%
OC[C@@H]1O[C@H](CNCc2ccc(F)cc2)[C@H](N2CCOCC2)[C@@H]1O	-6.46%	-10.1%	-3.01%	-19%	-16.2%
CCn1cnnc1CC1CCN(C(=O)C2CCCN(S(=O)(=O)c3ccc4c(c3)oc(=O)n4C)C2)CC1 (stereo not drawn)	-2.86%	0%	2.24%	-0.368%	1.46%
COc1cccc(-c2nccc3c(=O)cc(N(C)C)oc23)c1	-14.6%	-10.9%	-23.2%	-24.9%	-2.98%
Cc1ccc(Cn2c(=O)c3ccc(C(=O)NC4CCCC4)cc3n3c(=O)n(CC(=O)NC(C)C)nc23)cc1	6.45%	0%	6.6%	7.34%	7.14%
CCOc1ccc(C(=O)Cn2nc3n(CCc4ccccc4)c(=O)c4ccccc4n3c2=O)cc1	-2.47%	3.19%	-0.42%	-1.96%	-3.48%
O=C(C1CCCN1[S+](=O)([O-])c1cccs1)N1CCC(N2CCOCC2=O)CC1 (stereo not drawn)	-5.56%	-4.81%	-1.13%	-7.64%	10.7%

SMILES	activity change, negative = inhibition [1]	activity change, negative = inhibition [2]	activity change, negative = inhibition [3]	activity change, negative = inhibition [4]	activity change, negative = inhibition [5]
CC(C)CCNC(=O)C1(C)Cn2c(ccc2-c2ccco2)C(=O)N1CCc1ccccc1 (stereo not drawn)	-4.13%	0%	2.07%	-8.68%	-2.75%
CCNC(=O)Nc1ccc(-c2nc3c(c(N4CCOCC4C)n2)CCN(C2COC2)C3)cc1 (stereo not drawn)	-2.79%	3.67%	2.75%	-13.3%	-2.57%
C=CCCC(CN1CCCOCC1)Oc1cc(C#N)ccn1 (stereo not drawn)	-2.81%	1.97%	0.715%	-2.4%	12.2%
CC(C)(C(=O)O)C1CCOCC1	-2.68%	-7.42%	-1.31%	-14.9%	-15.2%
CSc1cccc(N2C(=O)c3cc(C(C)(C)C)nn3CC2(C)C(=O)NCCC(C)C)c1 (stereo not drawn)	-2.56%	2.84%	0%	-6.82%	-2.03%
CCOC(=O)c1cc2n(n1)CC(C)(C(=O)NCCCOC)N(c1ccc(OC)c(OC)c1)C2=O (stereo not drawn)	9.63%	2.57%	12.5%	11%	7.3%
COc1ccc(NC(=O)N2CCCC(Cc3noc(-c4ccncc4)n3)C2)cc1 (stereo not drawn)	-8%	-9.77%	-10.4%	-19.1%	-12.3%
O=C(Nc1ccc2c(N3CCCC3)ncnc2c1)c1cc(F)ccc1Cl	-33.6%	-28%	-92.4%	-33.3%	-28%
CCn1nccc1C(=O)N1CCC([C@H]2[C@@H](OC)CN2C(C)C)CC1	-0.11%	4.11%	2.11%	-2.21%	15%
COC1CCOC2(CCN(C(=O)c3cc(-c4ccccc4)n[nH]3)CC2)C1 (stereo not drawn)	-5%	1.74%	1.34%	-0.435%	1.02%
NC(N)=Nc1nc(CSCC/C(N)=N/S(N)(=O)=O)cs1	-0.147%	14.1%	0.832%	-0.396%	7%
C=C1C(=O)OC2C1CCC1(C)C(O)CC=C(C)C21 (stereo not drawn)	-4.7%	-3.19%	6.38%	-9.01%	3.21%
COc1ccc(OC)c2c1cc1n2CC(C)(C(=O)NC2CCCCC2)N(Cc2ccccc2F)C1=O (stereo not drawn)	-1.23%	3.79%	-3.37%	0.481%	-3.2%
CCCn1c(=O)c2ccc(C(=O)NC(C)C)cc2n2c(=O)n(Cc3ccc(Cl)cc3)nc12	2.06%	2.6%	7.86%	-2.9%	6.75%
C=C(C(=O)O)[C@@H]1CC=C2CCC[C@H](C)[C@@]2(C)C1	0%	4.71%	8.25%	-10.1%	4.71%
